{
  "source": "ChEMBL document CHEMBL1201862",
  "about": "“PubChem BioAssay data set” (2004)",
  "note": "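How tested: cells in 96-well plates exposed to compound for 48 hours at five concentrations. The concentration for 50% growth inhibition is given as GI50.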 The source made the active and inactive calls. Cut-off read from the data, not from the text of the source: active = GI50 up to about 1.1 µM and inactive = higher.",
  "data": [
    {"system": "NCI-H322M", "experiment": "growth of human tumour cells (NCI), 48 h", "values": [
      {"smiles": "Cc1cccc2c1nc1n2C(=O)c2ccccc2-1", "GI50": "inactive: > 100 µM"},
      {"smiles": "O=C1CCCCN1", "GI50": "inactive: > 1120 µM"},
      {"smiles": "Oc1ccc(-c2n[nH]c(S)n2)cc1", "GI50": "inactive: > 100 µM"},
      {"smiles": "Nc1[nH]nc2ccccc12", "GI50": "inactive: > 100 µM"},
      {"smiles": "O=P(O)(O)CCP(=O)(O)O", "GI50": "inactive: > 100 µM"},
      {"smiles": "NCCCN1CCN(c2ccccc2)CC1", "GI50": "inactive: > 100 µM"},
      {"smiles": "O=C1Nc2ccccc2/C1=N/NC(=S)N1CCCC1", "GI50": "inactive: 2.97 µM"},
      {"smiles": "Cc1cn2c(/C=N/NC(=N)N)c(-c3cccc([N+](=O)[O-])c3)nc2s1", "GI50": "inactive: 1.67 µM"},
      {"smiles": "CC1=NN(C(=O)c2ccc(C)cc2)C(=O)C1/N=N/c1ccccc1C(=O)O", "note": "(stereo unspecified)", "GI50": "inactive: > 100 µM"},
      {"smiles": "Cc1cc(N(CCC#N)CCC#N)ccc1/C=C(\\NC(=O)/C=C/c1ccccc1)NC(=O)Nc1ccc(Cl)cc1", "GI50": "inactive: > 100 µM"},
      {"smiles": "Cc1cc(-c2cc(C(C)(C)C)c(O)c(C(C)(C)C)c2)c(C)cc1-c1cc(C(C)(C)C)c(O)c(C(C)(C)C)c1", "GI50": "inactive: > 100 µM"},
      {"smiles": "CCOP(=O)(OCC)C(C(=O)OC)C(=O)C(=O)Nc1cccc(O)c1", "note": "(stereo unspecified)", "GI50": "inactive: > 100 µM"},
      {"smiles": "O=[N+]([O-])C(=C(N1CCOCC1)N1CCOCC1)/C(Cl)=C(\\Cl)Br", "GI50": "inactive: > 100 µM"},
      {"smiles": "CC(=O)CC1(CBr)Nc2ccc([N+](=O)[O-])cc2NC1=O", "note": "(stereo unspecified)", "GI50": "inactive: 50.1 µM"},
      {"smiles": "CC(C)(C)c1cc(C(=O)O)c(C(c2ccccc2)c2ccccc2C(=O)O)c(C(=O)O)c1", "note": "(stereo unspecified)", "GI50": "inactive: > 100 µM"},
      {"smiles": "CC12CCC(C/C1=N\\NC(N)=O)C2(C)C", "note": "(stereo unspecified)", "GI50": "inactive: > 100 µM"},
      {"smiles": "Cc1c(O)c(C)c2c(C)cn(C(=O)C(C)(C)C)c2c1C", "GI50": "inactive: 19.8 µM"},
      {"smiles": "COC(=S)OC1CC(n2cnc3c(=O)[nH]cnc32)OC1CO[Si](C)(C)C(C)(C)C", "note": "(stereo unspecified)", "GI50": "inactive: > 100 µM"},
      {"smiles": "CCCCC(=C=C1CCCCC1O)C1CCCN1C(=O)OC(C)(C)C", "note": "(stereo unspecified)", "GI50": "inactive: 16.1 µM"},
      {"smiles": "Cc1ccc(S(=O)(=O)Oc2coc(CO)cc2=O)cc1", "GI50": "inactive: 17 µM"},
      {"smiles": "CN(CCNC(=O)c1cn(C)c2c1ccc1cc(Cl)ccc12)CCNC(=O)c1cn(C)c2c1ccc1cc(Cl)ccc12", "GI50": "inactive: 1.92 µM"},
      {"smiles": "COc1ccc(N2C(=O)C3c4[nH]c5ccccc5c4C4C(C)CCCC4C3C2=O)cc1", "note": "(stereo unspecified)", "GI50": "inactive: > 90.8 µM"},
      {"smiles": "S=C1SC(=N\\c2ccccc2)/C(=N/c2ccccc2)N1c1ccccc1", "GI50": "inactive: > 100 µM"},
      {"smiles": "NC(=S)N1N=C2c3ccccc3CC[C@@H]2[C@@H]1c1ccccc1", "GI50": "inactive: 22.4 µM"},
      {"smiles": "CCOC(=O)/C(Cl)=C(\\C)Nc1nc2c(ccc3ccccc32)s1", "GI50": "inactive: > 10 µM"},
      {"smiles": "COC(OC)C1OC(CO)C(n2ccc(N)nc2=O)C1O", "note": "(stereo unspecified)", "GI50": "inactive: > 100 µM"},
      {"smiles": "Cn1c(=O)cc(NNc2ccc(Cl)c(Cl)c2)[nH]c1=O", "GI50": "inactive: 18.3 µM"},
      {"smiles": "CCCNC(=O)CCC(C)[C@H]1CCC2C3C(C[C@H](OC(C)=O)[C@@]21C)[C@@]1(C)CCC2(C[C@H]1C[C@H]3OC(C)=O)OOC1(CCC(C)CC1)OO2", "note": "(stereo partly specified)", "GI50": "inactive: 58.9 µM"},
      {"smiles": "Cc1ccc(C)c(N2C(=O)C(=O)C(c3nc4ccccc4s3)/C(=N\\c3cccc4c(=O)[nH][nH]c(=O)c34)C2=O)c1", "note": "(stereo unspecified)", "GI50": "inactive: > 100 µM"},
      {"smiles": "O=C(Nc1cccc(-c2cn3ccccc3n2)c1)c1ccncc1", "GI50": "inactive: 39.7 µM"},
      {"smiles": "N#CCCN(CCC#N)c1ccc(C(/N=N/c2ccc(Cl)cc2)=N\\c2ccccc2)cc1", "GI50": "inactive: 14.1 µM"},
      {"smiles": "COC1/C(=C\\C(=O)OC(C)(C)C)c2ccccc2N1C(C)=O", "note": "(stereo unspecified)", "GI50": "inactive: > 100 µM"},
      {"smiles": "C[C@]12CC/C(=N\\O)C=C1CC[C@@H]1[C@@H]2CC[C@]2(C)C(=N/O)/C(=C/c3ccc([N+](=O)[O-])cc3)C[C@@H]12", "GI50": "inactive: 11.5 µM"},
      {"smiles": "COc1ccc(NC(=O)CC(=O)N/N=C/c2ccc(N(CCC#N)S(=O)(=O)c3ccccc3)cc2)cc1", "GI50": "inactive: > 100 µM"},
      {"smiles": "C=C(/C=C/C=C(\\CO)CCC=C(C)C)[C@H]1CCC2([C@H](CCCO)/C(=C(/C)C=O)CC[C@]2(C)O)[C@H]1O", "note": "(stereo partly specified)", "GI50": "inactive: > 100 µM"},
      {"smiles": "CC(C)C(=O)N1Cc2cc(Cl)cc(Cl)c2OC(=O)c2ccccc21", "GI50": "inactive: 42.3 µM"},
      {"smiles": "Cc1ccc(-n2cc(-c3ccc(Cl)cc3)c3c2N=CN2N=C(c4ccco4)NC32)cc1", "note": "(stereo unspecified)", "GI50": "inactive: 56.2 µM"},
      {"smiles": "Cc1ccc(O)c(C(c2ccc(C(c3cc(C)ccc3O)c3cc(C)ccc3O)cc2)c2cc(C)ccc2O)c1", "GI50": "inactive: 1.56 µM"},
      {"smiles": "C=CC/N=C1\\NC(=O)C(CC(=O)Nc2ccc(C)cc2)S1", "note": "(stereo unspecified)", "GI50": "inactive: > 100 µM"},
      {"smiles": "COc1ccc(N[C@H](C[S+]([O-])c2ccc(C)cc2)C(F)(F)F)cc1", "note": "(stereo partly specified)", "GI50": "inactive: > 100 µM"},
      {"smiles": "N[C@H](CCC(=O)NCP(=O)(O)O)C(=O)O", "GI50": "inactive: > 100 µM"},
      {"smiles": "CC1=C(C(=O)CC(=O)C(=O)Nc2cc(C)ccc2C)Sc2ccccc2N1", "GI50": "inactive: > 100 µM"},
      {"smiles": "COC(=O)CCC(=O)NC1=C(NCc2ccccc2)C(=O)c2ccccc2C1=O", "GI50": "inactive: 43.4 µM"},
      {"smiles": "CCN(CC)c1nc(N(C)C)c2ccc(OC)cc2n1", "GI50": "inactive: 10.3 µM"},
      {"smiles": "CC1Oc2c(c(O)cc3oc(=O)cc(-c4ccccc4)c23)C(=O)C1C", "note": "(stereo unspecified)", "GI50": "inactive: > 100 µM"},
      {"smiles": "O=C1C=C(Nc2ccccc2C(=O)CC(=O)C(=O)Nc2ccc(Cl)c(Cl)c2)c2ccccc2C1=O", "GI50": "inactive: 47.5 µM"}
    ]}
  ]
}
